Read counts are not given, so values of variants with three or more changes are uncertain.
B1: OR4K15 (parent)
chain: GUUAACGGUCAUAGGCCAUGGAAACUAGGAGCACCAUUUCGCUGCCAGUGAAGAAAUGAACAAAGAAAAUCUGGGCCAGGCAGGCAUCAAAAGAAAUAGUCUUGCGCUCAACCAGAAAGUCUGUAAUCAUUUUAAGGGUA

Variants of: B1
Assay: self-cleavage, relative activity (ratio to wild type); higher = more cleavage; in vitro, sequencing; the parent is a self-cleaving ribozyme
GUUAACGGUCAUAGGCCAUGGAAACUAGGAGCACCAUUUCGCUGCCAGUGAAGAAAUGAACAAAGAAGAUCUGGGCCAGGCAGGCAUCAGAAGAAAUAGUCUUGCGCCCAACCAGAAAGUCUGUAAUCAUUUUAAGGGUA gave a self-cleavage of 0.02. GUUAACGGUCAUAGGCCAUGGAGACUAGGAGCACCAUUCCGCUGCCAGUGAAGAAAUGAACAAAGAAAAUCUGGGCCAGGCAGGCAUCAAAAGAAAUAGUCUUGCGCUCAACCAGAAAGUCCGUAAUCAUUUUAAGGGUA gave a self-cleavage of 0.94. GUUAACGGUCAUAGGCCAUGGAAACUAGGAGCACCACUUCGCUGCCAGUGAAGAAAUGAACAAAGAGAAUCUGGGCCAGGCAGGCAUCAAAAGAAAUAGUCCUGCGCUCAACCAGAAAGUCUGUAAUCAUUUUAAGGGUA gave a self-cleavage of 1.13. For GUUAACGGUCGUAGGCCAUGGAAACUAGGAGCACCAUUUGGCUGCCAGUGAAGGAAUGAACAAAGAAUAUCUGGGCCAGGCAGGCAUCAAAAGAAAUAGUCUUGCGCUCAACCAGAAAGUCUGUAAUCAUUUUAAGGGUA, the self-cleavage was 1.59. GUUAACGGUCAUAGGCCAUGGAAACUAGGAACACCAUUUCGCUGCCAGUGAAGAAAUGAACAAAGAAAAUCCGGGCCAGGCUGGCAUCAAAAGAAAUAGUCUUGCGCUCAACCAGAAAGUCUGUAAUCAUUUUAAGGGUA gave a self-cleavage of 0.18. GUUAACGGUCAUAGGCCAUGGAAACUAGGAGCACCAUUUCGCUGCCAGUGAAGAAAUGAUCAAAGAAAAUCUGGGCCAGGCAGGCAUCAAAAGGAAUAGUCUUGCGCUCAACCAGAAAGUCUGUAAUCAUCUUAAGGGUA gave a self-cleavage of 1.26. With GUUAACGGUCAUAGUCCAUGGAAACUAGGAGCACCAUUUCGCUGCCAGUGAAGAAAUGAACAAAGAAAAUCUGGGCCAGGCAGGCAUCAAAAGAAAUAGCCUUGCGCUCAACCAGAAAGUCUGUGAUCAUUUUAAGGGUA the self-cleavage was 1.77. In the case of GUUAACGGUCAUAGGCCAUGGAAACUAGGAGCACCAUUUCGCUGCCAGUGAAGAAAUGAACAAAGAAAAUCUGGGCCAGGCAGGCAUCAAAAGAAAUGGUUUUGCGCUCAACCAGAAAGGCUGUAAUCAUUUUAAGGGUA, the self-cleavage is reported as 0.04. In the case of GUUAACGGUCAUAGGCCAUGGAAACUAGGAGCACCAUUUCGCUGCCAGUGAAGAAAUGAACAAAGAAAAUCUGGGCCAGGCAGGCAUCAAAAGAAAUAGUCUUGCGCUCAACCAGAGAGUCCGUAAUCAUUAUAAGGGUA, the self-cleavage is reported as 0.91. GUUAACGGUCAUAGGCCAUGGAAACUAGGAGCACCAUUUCGCCGCCAGGGAAGAAAUGAACAAAGAAAAUCUGGGCCAGGCAGGCAUCAAAAGAAAUAGUCUUGCGCUCAACCAGAAAGUCUGUAAUCAUUUUAAAGGUA showed a self-cleavage of 1.88. In the case of GCUAACGGUCAUAGGCCAUGGAAACUAGGAGCACCAUUUCGCUGCCAGUGAAGAAAUGAACAAAGGAAUUCUGGGCCAGGCAGGCAUCAAAAGAAAUAGUCUUGCGCUCAACCAGAAAGUCUGUAAUCAUUUUAAGGGUA, the self-cleavage is reported as 1.1. GUUAACGGUCAUAGGCCAUGGAAACUAGGAGCACCAUUUCGCCGCCAGUGAAGAAAUGAACAAAGAAUAUCUGGGCCAGGCAGGCAUCAAAAGAAAUAGUCUUGAGCUCAACAAGAAAGUCUGUAAUCAUUUUAAGGGUA gave a self-cleavage of 0.01. With GUUAACGGUCAUAGGCCAUGGAAACUAGGAGCACCAUUUCGCUGCCAGUGUAGAAAUGAACAAAGUAAAUCUGGGCCAGGCAGGCAUCAAAAGAAAUAGCCUUGCGCUCAACCAGAUGGUCUGUAAUCAUUUUAAGGGUA the self-cleavage was 1.78. Work on GUUAACGGUCAUAGGCCAUGGAAACUAGGAGCACCAUUUCGCUGCCAGUGAAGAGAUGAACAAAGAAAAUCUGGGCCAGGCAGGCAUCAAAAGGAAUAGUCUUGCGCUCAACCAGAAAAUCUGUAAUCAUUUUAAGGGUA yielded a self-cleavage of 1.74. Work on GUUAACGGUCAUAGGCCAUGGAAACUAGGAGCAACAUUUCGCUGCCAGUGAAGAAAUGAACAAAGAAAUUCUGGGCCAGGCAGGCAUCAAAAGAAAUAGUCUUGCGCUCAACCAGAAUGUCUGUAAUCAUUUUAAGGGUA yielded a self-cleavage of 1.28. With GUUGACGGUCAUAGGCCAUGGAAACUAGGAGCACCAUUUCGCUGCCAGUGAAGAAAUGAACAAAGAAAAUCUGGGCUAGGCAGGCAUCAAAAGAAAUAGUCUUGCGCUCAACCGGAAAGUCUGUAAUCAUUUUAAGGGUA the self-cleavage was 1.27. In the case of GUUAGCGGUCAUAGGCCAUGGAAACUAGGAGCACCAUUUCGCUGCCAGUGAAGAAAUGAACAAAGAAGAUCUGGGCCAGGCAGGCAUCAAAAGAAAUAGUCAUGCGCUCAACCAGAAAGUCUGUAAUCAUUUUAAGGGUA, the self-cleavage is reported as 1.42. In the case of GUUAACGGUCAUAGGCCAUGGAAACUAGGAGCACCAUUUCGCUGCCAGUGAAGAAAUGAACAAAGAAGAUCUGGGCCAGGCAGGCAUCAAAAGAAAUAGUCUUGCGCUCAACCAGAAGGUCUGUAAUCAUUUUAAGAGUA, the self-cleavage is reported as 1.06. GUUAACGGUCAUAGGCCAUGGAAACUUGGAGCACCAUUUCGCUGCCAGUGAAGAAAUGAACAAAGAAAAUCUGGGCCAGGCAGGCAUCAAAAGAAAUGGUCUAGCGCUCAACCAGAAAGUCUGUAAUCAUUUUAAGGGUA showed a self-cleavage of 0.04. With GUUAACGGUCAUAGGCUAUGGAAACUAGGAGCACCAUUUCGCUACCAGUGAAGAAAUGAACAAAGAAAAUCUGGGCCAGGCAGGCGUCAAAAGAAAUAGUCUUGCGCUCAACCAGAAAGUCUGUAAUCACUUUAAGGGUA the self-cleavage was 1.1. For GUUAACGGUCAUAGGCCACGGAAACUAGGAGCGCCAUUUCGCUGCCAGUGAAGAAAUGAACAAAGAAAAUCUGGGCCGGGCAGGCAUCAAAGGAAAUAGUCCUGCGCUCAACCAGAAAGUCUGUAAUCAUUUUAAGGGUA, the self-cleavage was 0.35.

From the RNAGym collection of RNA variant scans (doi:10.7554/elife.90254)
